Reference: PubChem BioAssay AID2147 (National Center for Advancing Translational Sciences (NCATS), 2009)
Among all 230,000 compounds or so, about 3,600 (1.6%) were called active. The inconclusive results got no clear call from the source; some entries with a clear call stand among them for comparison. Calls follow the shape of the dose curve; as a rule, active = well fitted inhibition curve with a large enough effect (not every such curve was filed as active); inconclusive = small, poorly fitted or top-dose-only effect, or another doubt; inactive = no such curve, though single readings can be large or run the other way. Where the call is inconclusive, the potency comes from a doubtful curve fit.

Molecular target: Lysine-specific demethylase 4E (Homo sapiens) (UniProt B2RXH2)
Test: qHTS Assay for Inhibitors of Human Jumonji Domain Containing 2E (JMJD2E)
Settings: JMJD2E catalytic domain, FDH-coupled NADH fluorescence (FDH is formaldehyde dehydrogenase); series mostly up to 57.1 µM
Also: nearly all actives have a fitted effect of over 50% in size.
Potency is read from the fitted curve at half-maximal effect; tags tell the direction and shape of the fitted curve.

UniProt B2RXH2, sequence (B2RXH2 whole entry, looked up, the tested form may be a part): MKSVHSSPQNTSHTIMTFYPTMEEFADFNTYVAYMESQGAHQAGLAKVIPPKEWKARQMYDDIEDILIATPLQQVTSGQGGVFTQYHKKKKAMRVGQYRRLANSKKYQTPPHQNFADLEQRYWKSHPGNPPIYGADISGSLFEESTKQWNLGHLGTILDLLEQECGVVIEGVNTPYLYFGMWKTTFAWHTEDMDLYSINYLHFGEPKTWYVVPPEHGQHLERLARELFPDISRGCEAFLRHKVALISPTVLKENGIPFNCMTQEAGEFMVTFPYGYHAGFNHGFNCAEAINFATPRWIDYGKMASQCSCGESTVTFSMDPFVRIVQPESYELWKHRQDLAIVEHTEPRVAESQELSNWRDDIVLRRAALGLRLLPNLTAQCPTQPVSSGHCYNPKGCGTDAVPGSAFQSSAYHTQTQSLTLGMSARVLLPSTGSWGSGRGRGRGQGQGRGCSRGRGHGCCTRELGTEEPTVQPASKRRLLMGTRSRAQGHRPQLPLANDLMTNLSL

SMILES	Potency
CCOC(=O)C1CCCN(Cc2c(C(=O)N3CCCCC3)nc3c(C)cccn23)C1 (stereo not given)	inactive
CCOC(=O)N1CCN(Cc2cn[nH]c2-c2ccc(-c3ccccc3)cc2)CC1	inconclusive: 39.8 µM [inhibitor, single point]
Cc1c(NC(=O)c2coc(=O)c(Br)c2)c(=O)n(-c2ccccc2)n1C	inconclusive: 14.1 µM [inhibitor, partial curve]
O=C(O)c1cc(/C=C/c2ccc(N3CCOCC3)cc2)nc2ccccc12	inconclusive: 28.2 µM [inhibitor, single point]
CN(C)c1ccc(-c2nc(Nc3ccncc3)c3ccccc3n2)cc1	inconclusive: 20 µM [inhibitor, partial curve]
C=CCn1c(N)c(C(=O)Nc2ccccc2)c2nc3ccccc3nc21	inconclusive: 31.6 µM [inhibitor, partial curve]
COc1ccc(CCNC(=O)COc2ccc(C)nc2[N+](=O)[O-])cc1	inactive
COc1ccccc1C(O)P(=O)(OC(C)C)c1ccc(N(C)C)cc1 (stereo not given)	inconclusive: 28.2 µM [inhibitor, partial curve]
COc1cccc(C(=O)/C=C/c2ccc(OCC#N)c(OC)c2)c1	inactive
Cc1ccc(-c2nnc(-c3ccc4c(c3)OCO4)o2)cc1	inconclusive: 7.94 µM [inhibitor, partial curve]
CC(C)OP(C)(=O)CN1CCN(CP(C)(=O)OC(C)C)CC1 (stereo not given)	inconclusive: 35.5 µM [inhibitor, single point]
O=c1c(-c2ccc(O)cc2)coc2c(C3OC(CO)C(O)C(O)C3O)c(O)ccc12 (stereo not given)	inconclusive: 28.2 µM [inhibitor, partial curve]
Cc1ccc(C2=NNC(c3cccc(F)c3)S2)cc1 (stereo not given)	inconclusive: 25.1 µM [inhibitor, single point]
COc1ccc2nc3cc(Cl)ccc3c(Nc3cc(C(C)C)c(O)cc3C)c2c1	inconclusive: 28.2 µM [inhibitor, single point]
COCCN1CCn2c(nc3cc(NC(=O)NC4CCCCC4)ccc32)C1	inconclusive: 31.6 µM [inhibitor, partial curve]
Cc1cccc(-n2nnnc2SCC(=O)NCCN2C(=O)CSC2=O)c1	inactive
Cc1ccc(C(=O)CSc2nnc(-c3ccccc3)n2-c2ccccc2)o1	inactive
CCOC(=O)c1c(C)n(-c2ccc(C)cc2)c2ccc(OCC(O)CN3CCN(C)CC3)cc12 (stereo not given)	inconclusive: 39.8 µM [inhibitor, single point]
O=[N+]([O-])c1cc(C(F)(F)F)ccc1Sc1nccn1Cc1ccccc1	inactive
CCN1C(=O)N/C(=C/c2ccc(Sc3ccc(C)cc3)o2)C1=O	inconclusive: 31.6 µM [inhibitor, partial curve]
Cc1cc(C)c2c(N)c(C(=O)NN3CC(=O)N(c4ccccc4F)CC3=O)sc2n1	inconclusive: 31.6 µM [inhibitor, partial curve]
CCCOc1c(Br)cc(C(N)=O)cc1OCC	inactive
Cc1ccc2[nH]c(=O)c(CN(CCCN(C)C)C(=S)NCCc3ccccc3)cc2c1	inconclusive: 31.6 µM [inhibitor, single point]
Cc1cccc(NC(=O)/C(C#N)=C\c2cc(C)n(-c3ccc(C(=O)O)cc3)c2C)c1	inactive

SMILES	Potency
Cc1c(NC(=O)COC(=O)C(c2ccc(Cl)cc2)C(C)C)c(=O)n(-c2ccccc2)n1C (stereo not given)	inconclusive: 39.8 µM [inhibitor, single point]
Cc1csc2cc(-c3cccc([N+](=O)[O-])c3)c(-c3cccc([N+](=O)[O-])c3)c[n+]12	inactive
Cn1c2ccccc2c2cc(C(=O)NNS(=O)(=O)c3ccc(F)cc3)sc21	inconclusive: 22.4 µM [inhibitor, single point]
Cc1ccc(S(=O)(=O)N2CN(Cc3ccco3)c3nc4ccccc4nc32)cc1	inconclusive: 25.1 µM [inhibitor, partial curve]
O=C1CCCC(O)=C1N=Nc1ccc(Cl)c(Cl)c1	inactive
Fc1ccc(-c2nc3ccccc3[nH]2)cc1	inconclusive: 15.8 µM [inhibitor, partial curve]
COc1ccc2nc(NC3=NC(c4ccccc4)CC(=O)N3)nc(C)c2c1 (stereo not given)	inconclusive: 17.8 µM [inhibitor, partial curve]
CCCOc1ccc(-c2nc(C#N)c(NCC3CCCO3)o2)cc1 (stereo not given)	inconclusive: 31.6 µM [inhibitor, partial curve]
COc1ccc(-c2cc(C(F)(F)F)n3ncc(C(=O)N4CCc5ccccc5C4)c3n2)cc1	inconclusive: 31.6 µM [inhibitor, partial curve]
CC(=O)Nc1ccc(Nc2ncnc3c2cnn3-c2ccccc2)cc1	inconclusive: 35.5 µM [inhibitor, single point]
Cc1nn(C)cc1CN(C)C(=O)c1cc2nc(-c3ccco3)cc(C(F)(F)F)n2n1	inconclusive: 35.5 µM [inhibitor, partial curve]
COc1ccc(OC)c(-c2oc3ccccc3c(=O)c2O)c1	inconclusive: 39.8 µM [inhibitor, single point]
CCOC(=O)NC1(NC(C)C)Oc2ccccc2O1	inconclusive: 11.2 µM [inhibitor, partial curve]
COc1cc(/C=C2\SC(=S)N(NS(=O)(=O)c3ccccc3)C2=O)ccc1O	inactive
COc1cccc(CNC(=O)CCl)c1	inactive
c1ccc(-c2nc3ccccn3c2NCc2ccc3c(c2)OCO3)cc1	inconclusive: 31.6 µM [inhibitor, partial curve]
COC(=O)c1ccc(C)c(NS(=O)(=O)c2ccc(OC)cc2)c1	inactive
O=C1/C(=C\c2ccco2)SC(=S)N1c1ccc(O)cc1	inconclusive: 22.4 µM [inhibitor, single point]
O=C(CSCc1ccco1)Nc1cc(C(F)(F)F)ccc1N1CCOCC1	inactive
CC(=O)Oc1ccc(NC(=O)C2CCCCC2)c(C(=O)O)c1	inconclusive: 31.6 µM [inhibitor, partial curve]
O=S(=O)(Nc1cccc2c1ccc1cccn12)c1cccs1	inconclusive: 25.1 µM [inhibitor, single point]
CC(C)(C)c1cc(NCc2ccccn2)n2ncc(-c3ccccc3)c2n1	inconclusive: 31.6 µM [inhibitor, partial curve]
Cc1ccc(S(=O)(=O)C(C#N)c2nc3ccccc3nc2N2CCCCC2)cc1 (stereo not given)	inconclusive: 20 µM [inhibitor, partial curve]
COc1cc2c(cc1OC)CN(CC(=O)NC(=O)NCc1ccccc1)CC2	inconclusive: 31.6 µM [inhibitor, single point]

SMILES	Potency
O=C(/C=C/c1ccc(-c2ccc(F)cc2)o1)N1CCCC1	inconclusive: 28.2 µM [inhibitor, partial curve]
O=P(CCCCCCCCCP(=O)(c1ccccc1)c1ccccc1)(c1ccccc1)c1ccccc1	inactive
O=C(Nc1nc(-c2ccncc2)cs1)c1ccco1	inactive
O=S(=O)(c1cccs1)N1CN(C2CCCCC2)c2nc3ccccc3nc21	inconclusive: 35.5 µM [inhibitor, single point]
COCc1cc(C)nc(N)c1C#N	inconclusive: 28.2 µM [inhibitor, partial curve]
O=C(COc1ncnc2c(Cl)cc(Cl)cc12)NC1CCCCCC1	inactive
Cc1ccc(C)c(NC(=O)CSc2nnc(-c3n[nH]c4ccccc34)o2)c1	inconclusive: 31.6 µM [inhibitor, single point]
Cc1nc2ccccc2c(=O)n1N	inconclusive: 7.08 µM [inhibitor, single point]
CCC(C)CCCCC(=O)NC(CCN)C(=O)NC(C(=O)NC(CCN)C(=O)NC1CCNC(=O)C(C(C)O)NC(=O)C(CCN)NC(=O)C(CCN)NC(=O)C(CC(C)C)NC(=O)C(Cc2ccccc2)NC(=O)C(CCN)NC1=O)C(C)O (stereo not given)	inactive
Cc1cc(Oc2ccc(=O)[nH]n2)nc(Cl)n1	inconclusive: 12.6 µM [inhibitor, partial curve, poor fit]
CCN(CC)c1ccc(NC(=O)COc2ccc(C)cc2)cc1	inactive
Cc1ccccc1S(=O)(=O)N(CC(O)CN1C(=O)NC(C)(C)C1=O)c1ccccc1 (stereo not given)	inactive
CCN(CC)c1nc2cc(C)ccc2cc1/C=C(\C#N)C(N)=O	inconclusive: 35.5 µM [inhibitor, single point]
COc1ccc(C(=O)N2CC3(CC(c4ccc(Cl)cc4)=NO3)C[C@H]2C(=O)NCC(N)=O)cc1 (stereo not given in full)	inactive
COc1cccc(-c2nc(NCCc3c[nH]c4ccc(OC)cc34)c3ccccc3n2)c1	inconclusive: 35.5 µM [inhibitor, single point]
COC(=O)/C=C1\S/C(=N/N=C/c2ccc(Cl)cc2)NC1=O	inactive
CCn1c(SCC(=O)N/N=C(\C)c2ccncc2)nnc1-c1ccccc1	inconclusive: 6.31 µM [inhibitor, single point]
Cc1cccc(C2CC3(CC(C)(C)NC(=S)N3)Oc3cc(O)ccc32)c1 (stereo not given)	inconclusive: 6.31 µM [inhibitor, partial curve]
C=CCOC(=O)/C(=C\C=C\c1ccccc1)NC(=O)c1ccccc1	inactive
O=C(NNC1=C(C(=O)C(F)(F)F)CCC1)c1ccc(Br)cc1	inactive
O=C(CN1CCCc2ccccc21)N/N=C/c1ccc(O)cc1O	active: 25.1 µM
COC(=O)c1ccc(C(NC(=O)OCc2ccccc2)/C(=C/[C@@H](C)C(=O)N(C)Cc2ccccc2)c2cccnc2)cc1 (stereo not given in full)	inactive
